The values below come from PubChem BioAssay (NCI).

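Dose response: 5 concentrations. Exposure: 48 h. Format: 96-well plates. Endpoint: linear interpolation; highest concentration if not reached. GI50 = concentration required for 50% inhibition of growth. TGI: concentration producing complete growth inhibition.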

This assay concerns NCI-H322M lung. Kind of assay: NCI anticancer screen, dose series, 48 h.
Take `CCN(CC)c1ccc(/C=c2\nc(-c3ccccc3)n3c2nc2ccccc23)cc1`: the TGI is 44.3 µM.
On the same count and under the same terms, then `c1ccc2c(c1)nc1n2CCNC1`, with above 100 µM; and `CN(C)Cc1cc(C(C)(C)C)cc(CNC2CCCCC2)c1O`, with above 100 µM.
Compound `CCSCC(=O)N1CCc2c([nH]c3ccccc23)C1=O` yielded a TGI above 100 µM.
For the compound `c1nncn1C12C3C4C5C3C1C5C42` (stereo not given), the TGI was above 100 µM.
On to `O=C(Nc1ccc(-n2cc(-c3ccncc3)c(-c3ccc(O)c(Cl)c3)n2)cc1)c1cc(Cl)cc(Cl)c1`, for which the GI50 is above 32.5 µM and the TGI was above 32.5 µM.
On to `CCCc1ccc(S(=O)(=O)N[C@H]2CC[C@H]3[C@@H]4CCc5cc(O)ccc5[C@H]4CC[C@]23C)cc1`, for which the GI50 was 4.86 µM and the TGI is 17.9 µM.
For `O=C(NC1CC1)c1ccc(-c2nc3ccc4[nH]ncc4c3c3c2CCCC3)cc1`, the GI50 is 3.08 µM and the TGI came out at 32.3 µM.
The compound `O=C(O)C(F)(F)C(F)(F)C(F)(F)C(F)(F)C(=O)O` displayed a TGI above 100 µM.
For `O=C1CCCCCCCCCCC(=O)C2CCOCCOCCOCCC1Cc1cccc(n1)C2`, the TGI was above 100 µM.
In the case of `COc1ccc2c(c1)C1Oc3ccccc3CC1(O)CO2` (stereo not given), the TGI was above 100 µM.
On the same count and under the same terms, then `OCCN1CN(c2nc(N3CN(CCO)C3)nc(N3CN(CCO)C3)n2)C1`, with above 100 µM.
Take `C/C=C(\C)C(=O)N[C@H]1[C@@H](OC(C)=O)C[C@]2(C)C3CC[C@@]4(C)C(CC[C@@H]4C(C)N(C)C)C3CCC2[C@H]1O` (stereo not given in full): the GI50 was 5.34 µM and the TGI is 19.8 µM.
For the compound `O=[N+]([O-])c1ccc(-c2nc(N(CCO)CCO)c3ccccc3n2)o1`, the GI50 is 0.164 µM and the TGI is 0.603 µM.
The matching figures for `COc1ccc(CNc2nc3cc(N)cc(N)c3nc2-c2ccccc2)cc1OC`: 21.3 µM and 48.6 µM.
Consider `[N-]=[N+]=C(C(=O)OCC#CCOC(=O)C(=[N+]=[N-])S(=O)(=O)c1ccccc1)S(=O)(=O)c1ccccc1`, for which the TGI is above 10 µM.
Same read-out and setting: then `COc1ccc(C2S/C(=C\c3cc(OC)c(OC)c(OC)c3)C(=O)N2NC(=O)Cc2ccccc2)cc1` (stereo not given), with above 100 µM; and `COC(=O)c1c(C)ccc2c(O)c3c(cc12)C(=O)c1c2c(cc(O)c1C3=O)C1(C)OC(C)(O2)C(O)C(N(C)C)C1O` (stereo not given), with 4.7 µM.
Take `O=C(Nc1ccc(-n2cc(-c3ccncc3)c(-c3ccc(Cl)c(O)c3)n2)cc1)Nc1cc(C(F)(F)F)cc(C(F)(F)F)c1`: the GI50 was 1.71 µM and the TGI was 4 µM.
Regarding `C=C1C(=O)O[C@@H]2C1C[C@@H](O)/C(C)=C/C/C=C(\C)CCC[C@H](C)[C@H]2OC(C)=O` (stereo not given in full), the GI50 was 47.7 µM and the TGI was above 100 µM.
The matching figures for `C=C1CC[C@@]2(C#N)[C@H]3[C@H](CC[C@@H]2C)[C@@H](C)C[C@@H](CC(C)(C)C#N)[C@H]13`: 4.32 µM and 31 µM.
Regarding `CCOC(=O)CN=C1Nc2ccccc2C(=O)N2CSCC12` (stereo not given), the TGI is above 100 µM.
`CC(C)=CCC/C(=C\CC/C(=C\CCc1ccoc1)C(=O)O)C(=O)O` registered a TGI above 100 µM.
Still for that read-out and setting: then `O=S(=O)(O)c1ccc2c(N=Nc3ccccc3)c(O)c(S(=O)(=O)O)cc2c1`, with above 100 µM.
For `CCN(CC)CCOc1ccc(Nc2ncc3cc(-c4ccc(O)cc4)c(=O)n(C)c3n2)cc1`, the GI50 was 4.37 µM and the TGI was determined as 23.1 µM.
Turning to `O=c1[nH]c(=S)c2cc3c(=S)[nH]c(=O)n(CCC(c4ccccc4)(c4ccccc4)c4ccccc4)c3nc2n1CCC(c1ccccc1)(c1ccccc1)c1ccccc1`, the TGI was above 100 µM.
The same measure, in the same setting: then `CCCN=C1Nc2ccccc2[C@@H]2N(C)c3ccccc3C(C)C[C@]12C` (stereo not given in full), with 50.7 µM.
Take `CC(=O)C1CC2(c3ccc(C)cc3)C(c3ccc(C)cc3)=C(c3ccc(C)cc3)C1(c1ccc(C)cc1)S2=O` (stereo not given): the GI50 is above 100 µM and the TGI is above 100 µM.
`O=C(O)CCC(C(=O)O)N1C(=O)c2ccccc2C1=O` (stereo not given): the TGI is above 100 µM.
